Data on 94 sequences can be found in the supplement of paper PMC4466236.

Whole data set: some 33,000 sequences, median “E-score (dimensionless, -0.5 to 0.5)” near -0.058, cut for the highest 2% near 0.35. The list shows a part of the results.

The subject of the assay is MvaT. Briefly: PBM 8-mer E-score (mean of HK and ME arrays) (E-score (dimensionless, -0.5 to 0.5)); higher = stronger relative binding preference; most listed sequences are background and not binding sites. On the procedure:
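Protein binding microarray: GST-tagged full-length MvaT (P. aeruginosa PAO1) bound to two universal double-stranded 60-mer arrays (ME and HK), each with a constant 25-mer primer and a variable 35-mer region covering all 8-mers. The 8-mer E-score (rank-based, range -0.5 to 0.5, >0.45 = specific binding) is the mean of the two arrays.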
As to CCCTCTTC, the “PBM 8-mer E-score” value is -0.285.

Consider ATTCCCAA, for which the “PBM 8-mer E-score” value worked out at 0.13.

For the sequence ACATTAAC, the “PBM 8-mer E-score” value was 0.345.

In the case of GTTTTTCA, the “PBM 8-mer E-score” value is 0.0388.

As for AGTTCCGC, the “PBM 8-mer E-score” value amounted to 0.0473.

As to ACGAGGAT, the “PBM 8-mer E-score” value was -0.159.

In the case of CTCCTTAC, the “PBM 8-mer E-score” value was -0.18.

AGCGTCCT: the “PBM 8-mer E-score” value is -0.308.

GGCAGAAA: the “PBM 8-mer E-score” value is -0.0173.

As to CGCTAGTC, the “PBM 8-mer E-score” value was -0.127.

On to CTCGTCTA, for which the “PBM 8-mer E-score” value was -0.0914.

AAGTACAC: the “PBM 8-mer E-score” value was determined as 0.0927.

Consider AAGCAATA, for which the “PBM 8-mer E-score” value was determined as 0.269.

Regarding ATAGGCCC, the “PBM 8-mer E-score” value is -0.207.

On to AACGGCTA, for which the “PBM 8-mer E-score” value is -0.0879.

As for GTCCTCAC, the “PBM 8-mer E-score” value is -0.194.

For the sequence AGTTGGGG, the “PBM 8-mer E-score” value was -0.0196.

With CAAAAGGA, the “PBM 8-mer E-score” value is -0.0763.

Turning to CGCACATA, the “PBM 8-mer E-score” value turned out to be 0.171.

In the case of AGAGAGCT, the “PBM 8-mer E-score” value was -0.165.

In the case of CCAGGCCG, the “PBM 8-mer E-score” value was -0.184.

GACGAACA: the “PBM 8-mer E-score” value was -0.0414.

Regarding ATTCAAGA, the “PBM 8-mer E-score” value was -0.0191.

With AATTCTGA, the “PBM 8-mer E-score” value was determined as 0.0908.

Consider GTCCTCAA, for which the “PBM 8-mer E-score” value is -0.104.

On to CGGGTCCC, for which the “PBM 8-mer E-score” value is -0.152.

With GTGAGGGA, the “PBM 8-mer E-score” value was determined as 0.0164.

As for TAAGCACA, the “PBM 8-mer E-score” value amounted to 0.141.

With ATACACTC, the “PBM 8-mer E-score” value is 0.143.

CTCAAGGC: the “PBM 8-mer E-score” value is -0.227.

For CAACGTCG, the “PBM 8-mer E-score” value is -0.138.

Turning to GACGCGGA, the “PBM 8-mer E-score” value is -0.187.

On to ATGTGCTC, for which the “PBM 8-mer E-score” value is -0.000921.

Consider ATCCCATG, for which the “PBM 8-mer E-score” value was -0.165.

In the case of CCGCATAC, the “PBM 8-mer E-score” value is -0.000306.

On to GGTCAGCA, for which the “PBM 8-mer E-score” value was -0.214.

Regarding GCGTATAC, the “PBM 8-mer E-score” value was determined as 0.0771.

For ATCCAGCA, the “PBM 8-mer E-score” value was found to be 0.00328.

For AGGAGAAC, the “PBM 8-mer E-score” value is -0.112.

With CGTTGTAC, the “PBM 8-mer E-score” value was -0.0465.

On to ATGGAGTA, for which the “PBM 8-mer E-score” value is 0.0119.

As to CTAATTCA, the “PBM 8-mer E-score” value was found to be 0.228.

In the case of CGCATGTA, the “PBM 8-mer E-score” value was -0.00658.

In the case of CGTACAAG, the “PBM 8-mer E-score” value was -0.0572.

Consider ATGTCGTG, for which the “PBM 8-mer E-score” value is 0.0144.

With AGTTATAA, the “PBM 8-mer E-score” value stood at 0.43.

CAGTGAAA: the “PBM 8-mer E-score” value is -0.0731.

As for ATGTCTGA, the “PBM 8-mer E-score” value is -0.0388.

AAGCTCGA: the “PBM 8-mer E-score” value was -0.218.

Take ACTGTTAC: the “PBM 8-mer E-score” value came out at 0.147.

In the case of AGTTATGC, the “PBM 8-mer E-score” value worked out at 0.246.

Turning to ACCGCCTA, the “PBM 8-mer E-score” value was -0.0872.

Take ACAGCACC: the “PBM 8-mer E-score” value is -0.0822.

Consider CCATTTTC, for which the “PBM 8-mer E-score” value is 0.0198.

Consider CATATTAA, for which the “PBM 8-mer E-score” value is 0.418.

With ACAGCCGG, the “PBM 8-mer E-score” value is -0.209.

In the case of ACCAAGCA, the “PBM 8-mer E-score” value is 0.0548.

In the case of GGTTTGGA, the “PBM 8-mer E-score” value was -0.178.

With GACCATGC, the “PBM 8-mer E-score” value was -0.212.

For the sequence GTAATGGA, the “PBM 8-mer E-score” value was 0.105.

ACTCCTGG: the “PBM 8-mer E-score” value is -0.0912.

Turning to CCGATACG, the “PBM 8-mer E-score” value was -0.235.

CCGTCAGG: the “PBM 8-mer E-score” value is -0.209.

Consider AAGACTTC, for which the “PBM 8-mer E-score” value was found to be 0.0628.

As to AGCCTGCC, the “PBM 8-mer E-score” value was -0.198.

On to GGCGCCGA, for which the “PBM 8-mer E-score” value was -0.151.

As to AACGAACA, the “PBM 8-mer E-score” value amounted to 0.0294.

In the case of GAGACCGA, the “PBM 8-mer E-score” value was -0.137.

Regarding CAACGTCA, the “PBM 8-mer E-score” value is -0.0704.

For TCCAAAAA, the “PBM 8-mer E-score” value is 0.14.

CACGTTCG: the “PBM 8-mer E-score” value was -0.179.

Turning to CTAGGAGA, the “PBM 8-mer E-score” value was -0.11.

For the sequence AACCGCGT, the “PBM 8-mer E-score” value is -0.133.

Consider GTACTTAA, for which the “PBM 8-mer E-score” value stood at 0.227.

Take CACAGGTC: the “PBM 8-mer E-score” value was -0.205.

As to ATAGGCCG, the “PBM 8-mer E-score” value is -0.00347.

Take ATACAAAC: the “PBM 8-mer E-score” value turned out to be 0.305.

As to CACGTAGC, the “PBM 8-mer E-score” value was -0.14.

With CATGAACC, the “PBM 8-mer E-score” value was -0.181.

Turning to GAATTGGA, the “PBM 8-mer E-score” value is -0.102.

Consider CGTTGCCC, for which the “PBM 8-mer E-score” value was -0.207.

Take CCCCTAAG: the “PBM 8-mer E-score” value was -0.161.

In the case of TGACTCCA, the “PBM 8-mer E-score” value is -0.0409.

Consider TTAATAAA, for which the “PBM 8-mer E-score” value is 0.432.

With ACTAAACA, the “PBM 8-mer E-score” value was determined as 0.197.

As for CGTCATTA, the “PBM 8-mer E-score” value is -0.0328.

AACCAACA: the “PBM 8-mer E-score” value was found to be 0.2.

In the case of ATCATCCC, the “PBM 8-mer E-score” value was -0.0961.

In the case of CGTTTATC, the “PBM 8-mer E-score” value stood at 0.128.

Consider GTCAACCA, for which the “PBM 8-mer E-score” value was 0.0444.

Consider ATGACGAC, for which the “PBM 8-mer E-score” value is -0.0497.

In the case of ACCACGCG, the “PBM 8-mer E-score” value is -0.11.

Consider ATAGTGGG, for which the “PBM 8-mer E-score” value was found to be 0.0892.

Regarding CGTGGCAG, the “PBM 8-mer E-score” value was -0.0994.
